Reference: publication PMC7819943, “Rice protein-binding microarrays: a tool to detect cis-acting elements near promoter regions in rice”
The list shows a part of the results.

Molecular target: T1, OsWOX13 (Oryza sativa, UniProt Q5QMM3 1-267)
T1 sequence: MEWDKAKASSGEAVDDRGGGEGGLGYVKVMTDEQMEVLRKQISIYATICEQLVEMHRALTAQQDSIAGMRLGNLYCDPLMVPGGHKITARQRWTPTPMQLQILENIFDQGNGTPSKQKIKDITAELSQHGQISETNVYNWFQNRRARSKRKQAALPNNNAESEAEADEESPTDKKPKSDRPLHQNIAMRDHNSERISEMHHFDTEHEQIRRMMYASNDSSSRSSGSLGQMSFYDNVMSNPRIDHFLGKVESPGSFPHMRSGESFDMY
Assay: protein-binding microarray (RPBM); PBS, 2% BSA, 51.3 ng/ul salmon testes DNA, 50 uM zinc acetate, 200 nM TF, 25 C, 1 h; high values mean tight binding
Settings: protein: recombinant; tags: N-terminal polyhistidine and DsRed monomer fusion (pET32a); label: CyDye5-dUTP incorporated in the synthesized complementary strand; 3' TTTTT single-stranded linker to array surface; dsDNA, one strand shown
How it was run: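 Ni–NTA purification followed expression in E. coli BL21-CodonPlus of transcription factors fused N-terminally to a polyhistidine tag and DsRed. At 200 nM in PBS with 2% BSA, salmon testes DNA and 50 µM zinc acetate, the protein was incubated for 1 h at 25 °C with a custom Agilent array that had been primer-extended with Cy5-dUTP and blocked with 2% BSA. After washing, the array was read on an Axon 4000B scanner. The binding signal is per-feature fluorescence intensity in arbitrary units.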

Sequence | binding signal
TAGAATTGAATATATCATACTCCAGTTTATACTAGAACGTCGGAGTCACCTAGTGCAG | 5630 fluorescence intensity (a.u.)
ATTATTGAAATTTAGCATTTATGAATGATGTAGGGTGATACGGAGTCACCTAGTGCAG | 10800 fluorescence intensity (a.u.)
AAACTAAACTGGGCCTAAACGTGAGATATCTACGAGCCGCCGGAGTCACCTAGTGCAG | 3780 fluorescence intensity (a.u.)
CTATTTCTTGTTGATTACAGGATCAAATCAACTGGTACGCCGGAGTCACCTAGTGCAG | 4570 fluorescence intensity (a.u.)
GCTAACTGCTAAGAATTTGCATGAGCTAGCAATTCGCATGCGGAGTCACCTAGTGCAG | 4020 fluorescence intensity (a.u.)
ACGTAATTATAGCTTATTTTGTTATGAGTTATTTTATCACCGGAGTCACCTAGTGCAG | 24500 fluorescence intensity (a.u.)
TTTTATTAACTGTAAACGTCACATGTTCTGTCATACGCGTCGGAGTCACCTAGTGCAG | 5270 fluorescence intensity (a.u.)
TAATCGTATTAATTGATCAACAGGCTAGGCCAGCCAAACACGGAGTCACCTAGTGCAG | 13200 fluorescence intensity (a.u.)
TATTTTGGACCCATGATAGATTGATTTAGAACATGCGGAGCGGAGTCACCTAGTGCAG | 11400 fluorescence intensity (a.u.)
CACAAACACACACATATTCTCAATCTAACATAATAACACTCGGAGTCACCTAGTGCAG | 3170 fluorescence intensity (a.u.)
ATCACAAATCACATATCACACATCATAGATCGTTCACACGCGGAGTCACCTAGTGCAG | 5090 fluorescence intensity (a.u.)
GATCTAATTTGTTGTGTATTCTCAGAGTTTACTGTACTCTCGGAGTCACCTAGTGCAG | 22800 fluorescence intensity (a.u.)
AATAATCACCATGTTAAAATTATTAGATGTGTCTTGTTTACGGAGTCACCTAGTGCAG | 4390 fluorescence intensity (a.u.)
TCAAATACTGCTGATTATACATACCCACATGTGTTGAATGCGGAGTCACCTAGTGCAG | 3580 fluorescence intensity (a.u.)
ACCTTCACTTGATTGCTGGTGGTAGTAGTAGTAGTAGTACCGGAGTCACCTAGTGCAG | 21700 fluorescence intensity (a.u.)
CGGCTGGACAGGATAATCTAGATTATCCTCCTTTCCAGTTCGGAGTCACCTAGTGCAG | 4220 fluorescence intensity (a.u.)
ATTTAATTAATATGTTAATGAGCTAATCCGTTTTCGGGACCGGAGTCACCTAGTGCAG | 52300 fluorescence intensity (a.u.)
ATTAATTTGCCCACATTTTAGGTTTGGATGGCTGATTTGTCGGAGTCACCTAGTGCAG | 16000 fluorescence intensity (a.u.)
TTGTAATAATTTTATTTTGAGCTATAGTGCTAACCAGGACCGGAGTCACCTAGTGCAG | 5090 fluorescence intensity (a.u.)
CTAATTAATCATACTCTAGTAATAATAATTCTTATCGATTCGGAGTCACCTAGTGCAG | 3750 fluorescence intensity (a.u.)
AAAACGTTGTCAATTGTTAATGTATTTGGGATGCTGTCATCGGAGTCACCTAGTGCAG | 3450 fluorescence intensity (a.u.)
AGTCACTTGATTTGCTTTATCATAGAGCTTGATGAGATCCCGGAGTCACCTAGTGCAG | 24900 fluorescence intensity (a.u.)
CTAATGTTTTCAGATTGGGTAGATTGGAGTAGTTAACCTTCGGAGTCACCTAGTGCAG | 7000 fluorescence intensity (a.u.)
GACAAATTTACAGTAGTTTAACTTTAAGCAAAGTCAAAACCGGAGTCACCTAGTGCAG | 6260 fluorescence intensity (a.u.)
CTTATGATAGACATATTTCAATCTAACCACCTATCCTCTTCGGAGTCACCTAGTGCAG | 36100 fluorescence intensity (a.u.)
ACTAATTAAATTTGGAAAGAAACCACATGAAATGAAAGACCGGAGTCACCTAGTGCAG | 29800 fluorescence intensity (a.u.)
ACCCCAATCATTAACCCCGTATGTTAACGCACGCCATAAACGGAGTCACCTAGTGCAG | 11600 fluorescence intensity (a.u.)

Sequence | binding signal
GTGGCTGATTTAGAGGGAGCGATCAATTCAGTGGGTCTTACGGAGTCACCTAGTGCAG | 3790 fluorescence intensity (a.u.)
TTTCATTCCCTTTCCAATTAATTCCCAATGATAATCCCAACGGAGTCACCTAGTGCAG | 4860 fluorescence intensity (a.u.)
AGCGAAATGGATGATTAATCAATTGGACGTTGTCGAGAATCGGAGTCACCTAGTGCAG | 14300 fluorescence intensity (a.u.)
AAACAATAAACCCATTCAATCACAAGGAGAAAATAACACTCGGAGTCACCTAGTGCAG | 3380 fluorescence intensity (a.u.)
TATATATATATATATATATATATATATATATATAAGCGTCCGGAGTCACCTAGTGCAG | 21100 fluorescence intensity (a.u.)
TCGGATCTAATTGCCACGTAAACGCCACTTCAATGACATGCGGAGTCACCTAGTGCAG | 13100 fluorescence intensity (a.u.)
AGGTTAATTAGCTAGGTGTGTAGTACACCCGGCGACACATCGGAGTCACCTAGTGCAG | 21200 fluorescence intensity (a.u.)
ACCTTTGACAGCTCGAGCTCATGGCGGCTGCAGCCCTGCACGGAGTCACCTAGTGCAG | 3540 fluorescence intensity (a.u.)
GCGAACTGCCTGATAATTAAACTATCCCGATCGACATAAACGGAGTCACCTAGTGCAG | 3640 fluorescence intensity (a.u.)
TCATAAATGATAAATCACCTGATTCAATATACAAATAGGACGGAGTCACCTAGTGCAG | 30100 fluorescence intensity (a.u.)
TATTATATCACCACTAATTAATATATCTCACTTACAAACACGGAGTCACCTAGTGCAG | 7950 fluorescence intensity (a.u.)
AATTAGACATGACAAAACTGAAATTAAGGCGCTCTTGACTCGGAGTCACCTAGTGCAG | 20600 fluorescence intensity (a.u.)
ACTAGTGATGGTCGGTGATAGATGCTCAACCCAAATTACACGGAGTCACCTAGTGCAG | 6330 fluorescence intensity (a.u.)
CCCTTCATTTCCTTAATTAATTTCCATTCGATCAACAGCTCGGAGTCACCTAGTGCAG | 18500 fluorescence intensity (a.u.)
TCGTCTAATTAGTATTTCTGTTGCACAACACTACTATTTCCGGAGTCACCTAGTGCAG | 25500 fluorescence intensity (a.u.)
GTGATGATTGTTAGTGGATGATGATGTGGCATCTTGTTAACGGAGTCACCTAGTGCAG | 23200 fluorescence intensity (a.u.)
TTCCTTTTGCATGATAGGAATCAATCATCAATAGTCAAAACGGAGTCACCTAGTGCAG | 6710 fluorescence intensity (a.u.)
ACTATTAATGTGAACTGATATGATACATTTTAGAGCTAGCCGGAGTCACCTAGTGCAG | 6440 fluorescence intensity (a.u.)
CGCATCTTGATTAATTGCTGGCCGGCTGCGTTCTTTTGAACGGAGTCACCTAGTGCAG | 24000 fluorescence intensity (a.u.)
TCTGATTAAATTCAATTGCTTTGCACACAGGGCTCCATAACGGAGTCACCTAGTGCAG | 25600 fluorescence intensity (a.u.)
GTGGCATAATTGGGAAGGGTGGAGTCAACACGAAGCAGATCGGAGTCACCTAGTGCAG | 11900 fluorescence intensity (a.u.)
TATACTGAATTAATTGCAAGTAGCTTAGAGTCGTCGGTTTCGGAGTCACCTAGTGCAG | 15400 fluorescence intensity (a.u.)
GCTCCTAACCAATCAGCGCACCCATCGTCCCAAAATCCCCCGGAGTCACCTAGTGCAG | 8480 fluorescence intensity (a.u.)
CAGAAATTTTCGCTATTCAAATTTCCTGTCTACCTCCTCTCGGAGTCACCTAGTGCAG | 3760 fluorescence intensity (a.u.)
ACTCAATTAGAGTGCATCAAAACGATTTTAGAACAGTTTACGGAGTCACCTAGTGCAG | 4240 fluorescence intensity (a.u.)
ACTTCCATACACCGATTGATTGTAATTAAGCTTGTTGTTCCGGAGTCACCTAGTGCAG | 21900 fluorescence intensity (a.u.)
AGATGGGATTGATAGCACAACAATAATTCTTCTGCTCTGCCGGAGTCACCTAGTGCAG | 25300 fluorescence intensity (a.u.)
